{"source": "patent US20220411514A1", "about": "“ANTI-GAL3 ANTIBODIES AND METHODS OF USE FOR INSULIN RESISTANCE” (TrueBinding, Inc., priority 2021, published 2022)", "key": {"[1]": {"target": "T1, His-EK-ratGal3 (Rattus norvegicus, UniProt P08699)", "T1 sequence (P08699 1-262)": "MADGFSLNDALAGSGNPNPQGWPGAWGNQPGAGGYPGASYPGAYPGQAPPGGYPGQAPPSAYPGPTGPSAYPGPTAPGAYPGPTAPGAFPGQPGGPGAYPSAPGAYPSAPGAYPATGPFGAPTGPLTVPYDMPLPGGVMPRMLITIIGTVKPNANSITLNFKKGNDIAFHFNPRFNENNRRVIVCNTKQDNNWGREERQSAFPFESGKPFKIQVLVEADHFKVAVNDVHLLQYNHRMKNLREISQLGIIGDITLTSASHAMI", "assay": "Affinity kinetics to rat Gal3 (Biacore T200)", "assay_type": "binding", "description": "In each sample cycle, duplicates of the same antibody in HBS-EP+ with 0.5 mg/mL BSA at 10 μg/mL were captured to FC2 and FC4 by flowing at 10.0 μL/min for 120 seconds, and then diluted His-EK-ratGal3 in HBS-EP+ with 0.5 mg/mL BSA was injected to all 4 flow cells at 30.0 μL/min for 180 seconds, followed by dissociation for 240 seconds. A dilution series of His-EK-ratGal3 started from 300 nM, and was 1:3 diluted for 6 points. FC1 and FC3 were used as reference flow cells, and their sensograms were subtracted from FC2 and FC4 respectively to reduce non-specific binding background. Also, an additional sample cycle at 0 nM analyte was run, and its sensogram was subtracted from those of non-zero nM cycles to address machine drifts and bulk shifts. The data were analyzed by Biacore Evaluation software version 2.0. The binding affinities were characterized by fitting the kinetic sensograms to a monovalent binding model (1:1 binding).\nThe affinity of Gal3 binding to antibody was determined by acquiring real time Ligand:Analyte binding kinetics data and fitting the data with a 1:1 monovalent binding model. The kinetic evaluation procedure determines association and dissociation constants by fitting the experimental data to a 1:1 interaction model between analyte A and ligand B:\nThe affinity KD is the result of Kd divided by Ka.\nThe protocol disclosed in Example 9 was generally followed."}, "[2]": {"tested_on": "GLUT4 translocation in L6 GLUT4myc myoblasts", "assay": "Insulin-stimulated GLUT4 translocation with Gal3 and anti-Gal3 antibody", "assay_type": "cell-based, rat", "conditions": "30 μg/mL Gal3 pre-incubated with 60 μg/mL antibody, 100 nM insulin", "description": "Rat L6 GLUT4myc myoblasts (Kerafast #ESK202-FP) express a Myc-tagged GLUT4 that can be detected with an anti-Myc antibody. These cells were grown in a 48-well plate in MEM u growth media (Gibco, #12-571-063)+10% fetal bovine serum (FBS; Corning #35-016-CV) until 90-95% confluence was reached. Cells were then washed in PBS and serum starved for 2 hours in MEM u growth media without FBS. Thirty (30) μg/mL recombinant human Gal3 (TrueBinding QCB200347) was pre-incubated with 60 μg/mL anti-Gal3 antibodies for 30 minutes before being added to the serum-starved cells for 1 hour at 37° C. At the end of incubation, half of the cells were treated with 100 nM insulin (Sigma-Aldrich #I5523-50MG) for 20 minutes while the other half acted as basal controls. After 20 minutes, cells were washed quickly with ice cold PBS twice, then incubated with 4% paraformaldehyde (Boster Bio #AR1068) for 10 minutes on ice followed by 10 minutes at room temperature. The cells were washed three times with PBS, then blocked with 0.5 mL 5% goat serum (Vector Laboratories #101098-382) in PBS for 15 minutes. After the blocking agent was aspirated from the cells, 1 μg/ml anti-Myc polyclonal antibody (Sigma-Aldrich #C-3956) in 5% goat serum was added for 1 hour. […] Primary antibody was aspirated away, and then cells washed 5 times with PBS. Next, cells (including background controls) were incubated with 1:1000 goat anti rabbit antibody secondary antibody (Abcam #Ab97051) in 5% Goat serum for 30 minutes at room temperature. After washing, cells were incubated with 400 μL of TMB (Thermo Scientific #PI34029) for 5 minutes, then 200 μL of 1N HCL (Avantor Performance #JT5620-2) was added to stop the reaction. 100 μL of the sample was transferred to a 96 well plate with duplicates transferred for each condition. Samples were read at 450 nm on a SpectraMax plate reader. […] The fold changes were plotted on GraphPad Prism and presented as mean (SEM) of the technical replicates. Statistical significance was determined using unpaired T-tests comparing samples treated with Gal3 and insulin with all other conditions."}, "[3]": {"tested_on": "GLUT4 translocation in L6 GLUT4myc myoblasts", "assay": "Insulin-independent GLUT4 translocation by Gal3-antibody complex", "assay_type": "cell-based, rat", "description": "Rat L6 GLUT4myc myoblasts (Kerafast #ESK202-FP) express a Myc-tagged GLUT4 that can be detected with an anti-Myc antibody. These cells were grown in a 48-well plate in MEM u growth media (Gibco, #12-571-063)+10% fetal bovine serum (FBS; Corning #35-016-CV) until 90-95% confluence was reached. Cells were then washed in PBS and serum starved for 2 hours in MEM u growth media without FBS. Thirty (30) μg/mL recombinant human Gal3 (TrueBinding QCB200347) was pre-incubated with 60 μg/mL anti-Gal3 antibodies for 30 minutes before being added to the serum-starved cells for 1 hour at 37° C. At the end of incubation, half of the cells were treated with 100 nM insulin (Sigma-Aldrich #I5523-50MG) for 20 minutes while the other half acted as basal controls. After 20 minutes, cells were washed quickly with ice cold PBS twice, then incubated with 4% paraformaldehyde (Boster Bio #AR1068) for 10 minutes on ice followed by 10 minutes at room temperature. The cells were washed three times with PBS, then blocked with 0.5 mL 5% goat serum (Vector Laboratories #101098-382) in PBS for 15 minutes. […] Samples were read at 450 nm on a SpectraMax plate reader. […] Statistical significance was determined using unpaired T-tests comparing samples treated with Gal3 and insulin with all other conditions. […]"}, "[4]": {"tested_on": "L6 myoblasts", "assay": "Antibody internalization into skeletal muscle cells", "assay_type": "cell-based, rat", "conditions": "with 2 or 10 μg/mL Gal3 or without Gal3, 3 hours", "description": "It was tested whether anti-Gal3 antibodies were internalized into skeletal muscle cells. L6 myoblasts were seeded at a density of 10000 cells per well in a black clear bottom 96 well plate in L6 complete medium. The next day, the cells were serum starved using serum-free medium in the morning for 2 hours before proceeding with the following internalization experiment. […] The fluorophore-conjugated antibodies were then mixed with Gal3 protein (2 μg/mL or 10 μg/mL Gal3) or without Gal3 as control, and this mixture was added to the myoblasts. After 3 hours of incubation, fluorescent images of the cells were taken."}}}
{"molecule": "TB006: humanized anti-Gal3 antibody derived from mouse mAb, hIgG4 backbone (antibody, TB006 heavy chain peptide sequence; TB006 light chain peptide sequence, humanized anti-Gal3 antibody derived from mouse mAb, hIgG4 backbone) heavy: QVQLVQSGAEVKKPGASVKVSCKASGYSFTNYYMHWVRQAPGQRLEWMGWIYPGSGNTNYNEKFQGRVTITADTSASTAYMELSSLRSEDTAVYYCSTAPGGFDVWGQGTTVTVSSASTKGPSVFPLAPCSRSTSESTAALGCLVKDYFPEPVTVSWNSGALTSGVHTFPAVLQSSGLYSLSSVVTVPSSSLGTKTYTCNVDHKPSNTKVDKRV[in this place human IgG4 Fc with S228P (EU numbers)] light: DIVMTQTPLSLSVTPGQPASISCKSSKSLLHSDGITYLYWYLQKPGQSPQLLIYRMSNLASGVPDRFSGSGSGTDFTLKISRVEAEDVGVYYCAQMLEFPLTFGQGTKLEIKRTVAAPSVFIFPPSDEQLKSGTASVVCLLNNFYPREAKVQWKVDNALQSGNSQESVTEQDSKDSTYSLSSTLTLSKADYEKHKVYACEVTHQGLSSPVTKSFNRGEC", "values": [{"measurement": "affinity (KD) for rat Gal3", "setting": "[1]; Example 9", "result": "undetected"}, {"measurement": "average affinity to His-EK-ratGal3", "setting": "[1]; Example 14", "result": "did not bind"}, {"measurement": "effect on Gal3 block of insulin-stimulated GLUT4 translocation", "setting": "[2]", "result": "reduce the ability of Gal3 to block GLUT4 translocation"}, {"measurement": "surface GLUT4 levels, preincubated antibody-Gal3 complex", "setting": "[3]; 30 μg/mL human Gal3 + 60 μg/mL antibody, no insulin", "result": "increased surface GLUT4 levels independent of insulin"}, {"measurement": "GLUT4 translocation, antibody alone", "setting": "[3]; no Gal3, no insulin", "result": "did not result in comparable induction of GLUT4 translocation"}, {"measurement": "internalization of fluorophore-conjugated antibody into myoblasts", "setting": "[4]", "result": "internalized into the myoblasts only in the presence of Gal3"}]}
